{
  "source": "PubChem BioAssay (NCATS)",
  "note": "“And” between values parts separate entries of the source, which are not always exact repeats. Equal entries are not always repeated. This list was built around the results that the source calls inconclusive (neither active nor inactive); the mix of calls is not that of the screen. Potencies of inconclusive entries are doubtful fits and often do not repeat. The source made the active and inactive calls. The call rests on the fitted dose curve; in most records, active means well fitted curve in the direction sought with a large enough effect; inconclusive means small, poorly fitted or top-dose-only effect, or another doubt; inactive means no such curve, though single readings can be large; an effect the other way counts as inactive or inconclusive. Potency means the concentration at half of the fitted maximal effect; tags describe the fitted curve by direction and shape.",
  "data": [
    {"molecular_target": "Glutathione peroxidase 1 (Homo sapiens) (UniProt P07203)", "sequence (P07203 whole entry, looked up)": "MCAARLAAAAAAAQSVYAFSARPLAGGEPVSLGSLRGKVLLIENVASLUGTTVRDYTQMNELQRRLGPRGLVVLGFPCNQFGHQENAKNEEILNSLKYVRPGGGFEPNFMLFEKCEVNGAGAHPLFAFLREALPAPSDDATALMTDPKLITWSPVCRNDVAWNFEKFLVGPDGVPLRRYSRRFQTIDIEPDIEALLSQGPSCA", "experiment": "Primary qHTS Assay for Inhibitors of Recombinant Selenoprotein Glutathione Peroxidase 1 (GPX1) (AID 1845191); further: nearly all actives have a fitted effect of over 65% in size; on activity, negative = inhibition: on the % scale 0 is the no-effect control and ±100 the full control effect", "details": "recombinant GPX1, GR-coupled NADPH fluorescence, 15 min; activity, negative = inhibition: at 48.8 µM (top of the series); series mostly up to 48.8 µM", "procedure,_shortened": "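Recombinant GPX1 (10 nM final) was preincubated with compound for 30 min at room temperature, then reacted with 1 mM GSH, 0.5 mM CHP, 0.5 mM NADPH and 100 nM glutathione reductase; NADPH fluorescence (340/450 nm) was read at 0 and 15 min.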", "values": [
      {"smiles": "CNC(=O)c1cccc(-c2ccc3c(N4CCOC[C@@H]4C)nc(N4CCOC[C@@H]4C)nc3n2)c1", "Potency": "inconclusive: 32.1 µM [inhibitor, single point] and inconclusive: 4.09 µM [inhibitor, partial curve, poor fit]"},
      {"smiles": "C[C@@H](O[C@H]1OCCN(Cc2n[nH]c(=O)[nH]2)[C@H]1c1ccc(F)cc1)c1cc(C(F)(F)F)cc(C(F)(F)F)c1", "Potency": "inactive"},
      {"smiles": "CC(=O)O[C@H]1CC(C)(C)CC2[C@]13CO[C@@]21CCC2[C@@]4(C)CC[C@H](O[C@@H]5OC[C@H](O[C@@H]6O[C@H](CO)[C@@H](O)[C@H](O)[C@H]6O[C@@H]6OC[C@@H](O[C@@H]7O[C@H](CO)[C@@H](O)[C@H](O)[C@H]7O)[C@H](O)[C@H]6O)[C@H](O)[C@H]5O[C@@H]5O[C@H](CO)[C@@H](O)[C@H](O)[C@H]5O)[C@@](C)(CO)C4CC[C@@]2(C)[C@]1(C)C[C@H]3O", "note": "(some centres undefined)", "activity, negative = inhibition": "inactive: 2.15% [at 9.52 µM]"},
      {"smiles": "CC(=O)NCC(=O)N1C2CCC1c1cc(Nc3ncc(C(F)(F)F)c(NC4CCC4)n3)ccc12", "note": "(centres undefined)", "outcome": "inactive"},
      {"smiles": "CN1CCN(c2ccc(C(=O)Nc3n[nH]c4ccc(Cc5cc(F)cc(F)c5)cc34)c(NC3CCOCC3)c2)CC1", "Potency": "inconclusive: 16.1 µM [inhibitor, partial curve, poor fit]"}
    ]},
    {"molecular_target": "Phospholipid hydroperoxide glutathione peroxidase GPX4 (Homo sapiens) (UniProt P36969)", "sequence (P36969 whole entry, looked up)": "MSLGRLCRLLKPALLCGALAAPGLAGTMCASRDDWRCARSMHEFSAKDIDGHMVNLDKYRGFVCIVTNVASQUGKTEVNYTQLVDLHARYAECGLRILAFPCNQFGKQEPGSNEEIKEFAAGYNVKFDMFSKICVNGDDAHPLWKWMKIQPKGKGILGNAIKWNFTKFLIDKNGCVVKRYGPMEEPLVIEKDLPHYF", "experiment": "Primary qHTS Assay for Inhibitors of Recombinant Selenoprotein Glutathione Peroxidase 4 (GPX4) (AID 1845192); further: nearly all actives have a fitted effect of over 65% in size; on activity change, negative = inhibition: on the % scale 0 is the no-effect control and ±100 the full control effect", "details": "recombinant GPX4, GR-coupled NADPH fluorescence, 15 min; series mostly up to 50 µM; activity change, negative = inhibition: at the top concentration", "procedure,_shortened": "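GR-coupled readout: 100 nM GR, 1 mM GSH, 0.5 mM NADPH; NADPH fluorescence (ex 340/em 450 nm) read at t=0 and after 15 min RT. GPX4 200 nM, preincubated 30 min with compound; substrate 0.5 mM CHP.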", "values": [
      {"smiles": "CNC(=O)c1cccc(-c2ccc3c(N4CCOC[C@@H]4C)nc(N4CCOC[C@@H]4C)nc3n2)c1", "Potency": "inconclusive: 4.53 µM [inhibitor, single point]"},
      {"smiles": "COc1ccnc(CS(=O)c2nc3cc(OC(F)F)ccc3[nH]2)c1OC", "note": "(centres undefined)", "Potency": "inconclusive: 20.2 µM [inhibitor, single point]"},
      {"smiles": "C[C@@H](O[C@H]1OCCN(Cc2n[nH]c(=O)[nH]2)[C@H]1c1ccc(F)cc1)c1cc(C(F)(F)F)cc(C(F)(F)F)c1", "Potency": "inconclusive: 12.6 µM [inhibitor, partial curve]"},
      {"smiles": "O=C1CSc2ccccc2N1Cc1cccc(C(F)(F)F)c1", "activity change, negative = inhibition": "inactive: -9.28%"},
      {"smiles": "C/C1=C\\CCC2=CC(OC2=O)C(C)(C)/C=C/C1=O", "note": "(centres undefined)", "activity change, negative = inhibition": "inactive: -4.85%"},
      {"smiles": "COc1cc2nc(N3CCN(C)CC3)nc(NC3CCN(Cc4ccccc4)CC3)c2cc1OC", "Potency": "inconclusive: 22.7 µM [inhibitor, single point]"},
      {"smiles": "O=S(=O)(N[C@H]1CCCC[C@@H]1N1CCOCC1)c1ccc(Cl)cc1", "activity change, negative = inhibition": "inactive: 3.11%"},
      {"smiles": "CN1CCN(c2ccc(C(=O)Nc3n[nH]c4ccc(Cc5cc(F)cc(F)c5)cc34)c(NC3CCOCC3)c2)CC1", "Potency": "inconclusive: 12.8 µM [inhibitor, partial curve]"}
    ]},
    {"tested_on": "not listed separately", "experiment": "Primary fluorescence-based thiol-reactive (MSTI) qHTS assay for identification of artifact compounds. (AID 1845221);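 further: thiol-reactive compounds lower the probe fluorescence signal; nearly all actives have a fitted effect of over 65% in size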", "details": "MSTI thiol-reactivity probe, 1 h; series mostly up to 53.8 µM; activity change, negative = thiol reactive: at the top concentration", "procedure,_shortened": "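Curve-fitted percent inhibition (4-parameter Hill) derived from fluorescence, Ex 525/Em 598 nm, scaled with Acetyl-MSTI and MSTI; 1 h incubation at room temperature.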", "values": [
      {"smiles": "Nc1ncnc2c1nc(N)n2[C@@H]1O[C@H](CO)[C@@H](O)[C@H]1O", "activity change, negative = thiol reactive": "inactive: -8.22%"},
      {"smiles": "O=C(/C=C/c1ccc(O)c(O)c1)O[C@H]1[C@H](OC2CCCCC2O)O[C@H](CO)[C@@H](O)[C@@H]1O", "note": "(some centres undefined)", "Potency": "active: 2.07 µM"},
      {"smiles": "CCOC(=O)c1cnn(-c2ccccc2)c1NC(=O)c1cc2nc(-c3ccco3)cc(C(F)(F)Cl)n2n1", "Potency": "inconclusive: 29.9 µM [inhibitor, partial curve, poor fit]"},
      {"smiles": "Cc1ccc(Nc2c(F)cccc2Cl)c(CC(=O)O)c1", "Potency": "inconclusive: 6.7 µM [inhibitor, partial curve]"},
      {"smiles": "N#CC(c1ccnc(OCc2ccc(CN3CCOCC3)cc2)n1)c1nc2ccccc2s1", "note": "(centres undefined)", "Potency": "inconclusive: 1.19 µM [inhibitor, full curve]"},
      {"smiles": "Cc1cc(C)c(Nc2ccnc(Nc3ccc(C#N)cc3)n2)c(C)c1", "activity change, negative = thiol reactive": "inactive: 290%"},
      {"smiles": "CCNC(=O)C#Cc1ccc2c(C(=Nc3ccc(CN(C)C)cc3)c3ccccc3)c(O)[nH]c2c1", "activity change, negative = thiol reactive": "inactive: 11.8% [at 25.6 µM]"},
      {"smiles": "CN1CCN(c2ccc(C(=O)Nc3n[nH]c4ccc(Cc5cc(F)cc(F)c5)cc34)c(NC3CCOCC3)c2)CC1", "Potency": "inconclusive: 2.99 µM [inhibitor, full curve]"}
    ]},
    {"tested_on": "not listed separately", "experiment": "Primary redox qHTS assay for identification of artifact compounds. (AID 1845223);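 on redox activity (% of DA3003): 0% = DMSO and 100% = reference compound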", "details": "Amplex Red/HRP redox cycling with DTT, fluorescence; series mostly up to 53.8 µM; redox activity (% of DA3003): at the top concentration", "procedure,_shortened": "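Amplex Red (25 uM) and HRP (250 mU/mL) in HBSS, with compounds for 15 min, then 250 uM DTT for 30 min, room temperature, dark. Fluorescence 525/598 nm read; normalized to DMSO and 10 uM DA3003; Hill fit.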", "values": [
      {"smiles": "COc1ccnc(CS(=O)c2nc3cc(OC(F)F)ccc3[nH]2)c1OC", "note": "(centres undefined)", "Potency": "inconclusive: 23.8 µM [activator, partial curve, poor fit]"},
      {"smiles": "COc1cc2nc(N3CCN(C)CC3)nc(NC3CCN(Cc4ccccc4)CC3)c2cc1OC", "Potency": "inconclusive: 5.97 µM [activator, full curve]"},
      {"smiles": "CC(=O)O[C@H]1CC(C)(C)CC2[C@]13CO[C@@]21CCC2[C@@]4(C)CC[C@H](O[C@@H]5OC[C@H](O[C@@H]6O[C@H](CO)[C@@H](O)[C@H](O)[C@H]6O[C@@H]6OC[C@@H](O[C@@H]7O[C@H](CO)[C@@H](O)[C@H](O)[C@H]7O)[C@H](O)[C@H]6O)[C@H](O)[C@H]5O[C@@H]5O[C@H](CO)[C@@H](O)[C@H](O)[C@H]5O)[C@@](C)(CO)C4CC[C@@]2(C)[C@]1(C)C[C@H]3O", "note": "(some centres undefined)", "Potency": "inconclusive: 1.42 µM [activator, partial curve]"},
      {"smiles": "COc1ccc2nccc(C(=O)CC[C@@H]3CCN(CC#Cc4cc(F)cc(F)c4F)C[C@@H]3C(=O)O)c2c1", "Potency": "inconclusive: 7.52 µM [activator, partial curve]"},
      {"smiles": "CC(=O)O[C@@](C)(C(=O)/C=C/C(C)(C)O)[C@H]1[C@H](O)C[C@@]2(C)[C@@H]3CC=C4[C@@H](C=C(O)C(=O)C4(C)C)[C@]3(C)C(=O)C[C@]12C", "Potency": "inconclusive: 9.22 µM [activator, partial curve]"},
      {"smiles": "Cc1cc(C)c(Nc2ccnc(Nc3ccc(C#N)cc3)n2)c(C)c1", "redox activity (% of DA3003)": "inactive: -4.08%"},
      {"smiles": "CCNC(=O)C#Cc1ccc2c(C(=Nc3ccc(CN(C)C)cc3)c3ccccc3)c(O)[nH]c2c1", "Potency": "inconclusive: 9.22 µM [activator, partial curve, poor fit]"},
      {"smiles": "CC(=O)NCC(=O)N1C2CCC1c1cc(Nc3ncc(C(F)(F)F)c(NC4CCC4)n3)ccc12", "note": "(centres undefined)", "Potency": "inconclusive: 3.77 µM [activator, partial curve, poor fit]"}
    ]}
  ]
}
